# Laboratory results: the supplement of paper PMC12217912
# The list shows a part of the results. The full chains were built here from the parent and the listed change. Values near 0.05 are background.
# B1: TEV protease; numbered along this chain (parent)
# chain: MGESLFKGPRDYNPISSSICHLTNESDGHTTSLYGIGFGPFIITNKHLFRRNNGTLVVQSLHGVFKVKDTTTLQQHLVDGRDMIIIRMPKDFPPFPQKLKFREPQREERICLVTTNFQTKSMSSMVSDTSCTFPSGDGIFWKHWIQTKDGQCGSPLVSTRDGFIVGIHSASNFTNTNNYFTSVPKNFMELLTNQEAQQWVSGWRLNADSVLWGGHKVFMVKPEEPFQPVKEATQL
# Variants of: B1
# Experiment: raw area under fraction-flipped curve 0-4 h after induction (AUC4h, not background-subtracted), DNA-recorder readout of cleavage of the substrate (dimensionless); higher = more cleavage of the substrate by the protease variant
# Conditions: temperature: 34 °C; time window: 0-4 h after rhamnose induction
# Experimental: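 In vivo DNA recorder in E. coli TOP10(DE3) ΔrhaA at 34 °C. Each TEVp single-site mutant (parent TEVp 0) is paired with a single-site variant of the 7-mer TEVs (canonical ENLYFQ|S). The substrate sits between flexible linkers in a Bxb1-sfGFP-TEVs-SsrA fusion, so cleavage stabilises Bxb1 and speeds flipping of a recombination array, read by NGS. The value is the raw area under the fraction-flipped curve over 0-4 h after rhamnose induction (AUC4h), with ≥20 reads per time point. It is not background-subtracted; inactive controls average about 0.047.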
# 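Further: Bxb1 expression induced with 0.2% (w/v) L-rhamnose at OD600 near 0.5, cultures sampled hourly, flipped fraction per protease–substrate barcode pair counted by paired-end Illumina sequencing.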
Variant,area with substrate ENLYFQA,area with substrate ENLYFQC,area with substrate ENLYFQD,area with substrate ENLYFQF,area with substrate ENLYFQG,area with substrate ENLYFQH,area with substrate ENLYFQI,area with substrate ENLYFQK,area with substrate ENLYFQL,area with substrate ENLYFQN,area with substrate ENLYFQR,area with substrate ENLYFQS,area with substrate ENLYFQT,area with substrate ENLYFQV,area with substrate ENLYFQW,area with substrate ENLYFQY,area with substrate ENLYFQQ,area with substrate ENLYFQM,area with substrate ENLYFQP,area with substrate ENLYFQE
I167F,0.0799,0.101,0.0592,0.0556,0.0914,0.0732,0.0591,0.0611,0.0594,0.055,0.0688,0.0829,0.0533,0.068,0.055,0.045,–,–,–,–
S171G,0.0889,0.0719,–,–,0.0537,–,–,–,0.0611,0.0597,0.0681,0.0682,–,–,0.0423,–,–,–,–,–
G153N,0.0536,0.0535,–,–,–,–,–,0.0515,–,0.0604,0.0635,0.0507,0.0361,0.0142,–,–,0.0526,–,–,–
G153Y,0.0489,0.0319,–,–,–,–,0.0243,–,0.0538,0.0422,0.0435,0.0449,–,–,–,–,–,0.0484,0.0287,–
F180I,0.0657,0.0653,–,–,0.0629,–,0.0519,0.0533,0.042,0.0473,0.0561,0.0628,0.0566,0.0558,–,0.0593,–,0.0512,–,–
Q151S,0.0955,–,–,–,–,–,–,–,0.0453,0.109,0.0567,0.104,0.0699,–,0.0563,0.0859,0.0782,0.107,0.0613,–
G166S,0.0321,–,–,–,–,0.0465,0.0506,0.0489,0.0551,0.0445,0.0334,0.0529,0.0495,–,0.0463,0.0536,0.0578,–,0.0695,–
E195D,0.0738,–,0.0572,0.0467,–,–,0.0616,0.0955,–,0.0502,0.0534,0.101,0.068,–,0.0571,–,–,0.0863,0.0541,–
A196N,0.102,0.105,0.0685,–,0.0846,–,–,–,0.0567,0.0732,0.0494,0.101,0.0653,0.0668,0.062,0.083,–,–,0.0612,–
S182W,0.0474,0.0331,0.0544,0.0624,–,–,–,0.0281,0.0436,0.0473,0.0524,0.0548,0.0633,–,0.0582,0.06,–,–,0.0612,–
N178I,0.0996,–,0.0649,–,0.0613,–,–,–,–,–,–,0.0655,0.0511,–,–,–,–,–,0.0644,–
P155E,0.0413,0.0403,–,–,–,–,0.0458,0.0639,0.0429,–,0.0546,0.0519,0.0506,–,0.0491,0.0466,–,0.0582,0.059,0.0446
P155F,0.0499,0.0452,0.0532,–,0.0436,0.0511,–,0.0473,0.0499,0.0499,0.0585,0.0556,0.0552,0.0773,0.0558,0.0399,0.0639,0.0605,0.0472,–
S209C,0.104,0.108,0.0729,–,0.0577,–,0.0719,0.0208,0.069,0.0819,0.0693,0.0983,0.0104,–,0.0612,–,0.0832,0.0766,–,0.0712
S169N,0.0632,0.112,–,0.0355,0.0569,–,–,0.0595,0.0658,0.0372,0.0599,0.0616,0.0576,–,0.0634,0.0553,0.0625,0.0559,0.0462,0.0574
S169C,0.0937,0.0819,–,0.063,0.0857,0.127,–,0.0646,0.0482,0.067,0.0627,0.0901,0.0707,–,0.0618,0.0646,–,0.0711,0.0664,–
S169A,0.139,0.168,–,–,–,0.122,0.0691,0.055,0.0619,–,0.041,0.121,0.0655,–,0.0663,0.0958,–,0.144,–,–
G202S,0.0772,0.0881,–,0.0652,0.0722,–,0.0814,0.0631,–,–,0.0529,0.0776,0.0667,0.0494,0.0648,0.0617,–,0.0635,–,–
G214M,0.065,0.0898,–,–,0.0436,–,0.0397,–,0.0562,0.0621,0.0719,0.08,0.0529,–,0.0575,0.06,–,0.0782,0.0548,–
G214K,0.0655,0.0943,–,–,–,–,0.0604,0.0723,0.0498,0.0603,0.0687,0.0855,0.0617,–,–,0.077,0.0699,–,0.0451,–
L191T,0.0858,0.0892,0.0612,0.068,0.157,–,–,0.0596,0.0529,0.0847,0.0577,0.0756,0.0745,–,–,–,–,0.0631,0.0697,–
L191I,0.0744,0.104,–,0.0798,–,0.0745,0.0517,–,0.0602,–,0.053,0.0925,0.0775,–,0.0561,0.091,–,0.0839,0.0624,–
T159Y,0.108,0.117,–,0.0507,–,0.0762,0.0749,–,0.064,0.0721,0.0605,0.103,–,0.0625,0.0591,–,0.0663,0.0923,0.0748,–
G162H,0.0986,–,0.0671,0.0777,0.0876,0.0758,0.0541,0.0433,0.0583,–,0.057,0.0917,–,0.0461,–,0.093,0.0784,–,0.057,–
N177V,0.117,0.164,0.0904,–,0.162,0.124,0.0545,0.0678,0.0562,0.114,–,0.145,0.0569,0.069,0.101,0.0782,–,0.094,–,–
S201P,0.0626,0.0672,0.0624,–,0.0582,0.0693,–,0.0691,0.0387,0.0456,0.0379,0.0669,–,–,0.0537,0.0519,0.0632,–,–,–
V165D,0.0508,0.0438,0.0603,–,0.0519,–,0.0339,–,0.0458,0.0585,–,0.0515,–,0.0471,–,–,0.0448,–,0.0579,–
